Measured values: the supplement of paper PMC12217912
This is one part of the list. Sequences were assembled here from the parent chain. Values near 0.05 are background.

B1: TEV protease; numbered along this chain (parent)
chain: MGESLFKGPRDYNPISSSICHLTNESDGHTTSLYGIGFGPFIITNKHLFRRNNGTLVVQSLHGVFKVKDTTTLQQHLVDGRDMIIIRMPKDFPPFPQKLKFREPQREERICLVTTNFQTKSMSSMVSDTSCTFPSGDGIFWKHWIQTKDGQCGSPLVSTRDGFIVGIHSASNFTNTNNYFTSVPKNFMELLTNQEAQQWVSGWRLNADSVLWGGHKVFMVKPEEPFQPVKEATQL

Variants of: B1
Assay: raw area under fraction-flipped curve 0-4 h after induction (AUC4h, not background-subtracted), DNA-recorder readout of cleavage of the substrate (dimensionless); higher = more cleavage of the substrate by the protease variant
Settings: temperature: 34 °C; time window: 0-4 h after rhamnose induction
Description: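 In vivo DNA recorder in E. coli TOP10(DE3) ΔrhaA at 34 °C. Each TEVp single-site mutant (parent TEVp 0) is paired with a single-site variant of the 7-mer TEVs (canonical ENLYFQ|S). The substrate sits between flexible linkers in a Bxb1-sfGFP-TEVs-SsrA fusion, so cleavage stabilises Bxb1 and speeds flipping of a recombination array, read by NGS. The value is the raw area under the fraction-flipped curve over 0-4 h after rhamnose induction (AUC4h), with ≥20 reads per time point. It is not background-subtracted; inactive controls average about 0.047.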
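Further: Bxb1 expression induced with 0.2% (w/v) L-rhamnose at OD600 near 0.5, cultures sampled hourly, flipped fraction per protease–substrate barcode pair counted by paired-end Illumina sequencing.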

Row | Variant | area with substrate ENLYFAS | area with substrate ENLYFCS | area with substrate ENLYFFS | area with substrate ENLYFHS | area with substrate ENLYFIS | area with substrate ENLYFKS | area with substrate ENLYFMS | area with substrate ENLYFNS | area with substrate ENLYFPS | area with substrate ENLYFRS | area with substrate ENLYFTS | area with substrate ENLYFVS | area with substrate ENLYFWS | area with substrate ENLYFYS | area with substrate ENLYFDS | area with substrate ENLYFES | area with substrate ENLYFGS | area with substrate ENLYFSS | area with substrate ENLYFLS
1 | MGESLFKGPRDYNPISSSICHLTNESDGHTTSLYGIGFGPFIITNKHLFRRNNGTLVVQSLHGVFKVKDTTTLQQHLVDGRDMIIIRMPKDFPPFPQKLKFREPQREERICLVTTNFQTKSMSSMVSDTSCTFPSGDGIFWKHWIQTKDGQCGSPLVSTRDGFIVGIHSASNFTNTNNYFTSVPKNFMELLTNQEAQQWVSGWSLNADSVLWGGHKVFMVKPEEPFQPVKEATQL [R204S] | 0.0544 | 0.065 | 0.0654 | 0.0687 | 0.0565 | 0.0493 | 0.0675 | 0.0646 | 0.0571 | 0.0619 | 0.073 | 0.0626 | 0.059 | 0.0756 | – | – | – | – | –
2 | MGESLFKGPRDYNPISSSICHLTNESDGHTTSLYGIGFGPFIITNKHLFRRNNGTLVVQSLHGVFKVKDTTTLQQHLVDGRDMIIIRMPKDFPPFPQKLKFREPQREERICLVTTNFQTKSMSSMVSDTSCTFPSGDGIFWKHWIQTKDGQCGSPLVSTRDGFIVGIHSASNFTNTNNYFTSVPKNFMELLTNQEAQQWVSGMRLNADSVLWGGHKVFMVKPEEPFQPVKEATQL [W203M] | 0.0471 | – | – | – | 0.0557 | – | 0.0563 | 0.0483 | 0.0308 | – | – | – | 0.0571 | 0.0445 | – | – | – | – | –
3 | MGESLFKGPRDYNPISSSICHLTNESDGHTTSLYGIGFGPFIITNKHLFRRNNGTLVVQSLHGVFKVKDTTTLQQHLVDGRDMIIIRMPKDFPPFPQKLKFREPQREERICLVTTNFQTKSMSSMVSDTSCTFPSGDGIFWKHWIQTKDGQCGSPLVSTRDGFIVGIHSASNFTNTDNYFTSVPKNFMELLTNQEAQQWVSGWRLNADSVLWGGHKVFMVKPEEPFQPVKEATQL [N177D] | 0.0584 | – | 0.0674 | 0.0576 | 0.0685 | – | 0.0697 | 0.0875 | 0.0661 | 0.0659 | 0.0578 | 0.0585 | 0.0675 | 0.0559 | 0.0543 | 0.0679 | 0.0736 | 0.058 | –
4 | MGESLFKGPRDYNPISSSICHLTNESDGHTTSLYGIGFGPFIITNKHLFRRNNGTLVVQSLHGVFKVKDTTTLQQHLVDGRDMIIIRMPKDFPPFPQKLKFREPQREERICLVTTNFQTKSMSSMVSDTSCTFPSGDGIFWKHWIQTKDGQCGSPLVSTRDGFIVGIHSASNFTNTNNYMTSVPKNFMELLTNQEAQQWVSGWRLNADSVLWGGHKVFMVKPEEPFQPVKEATQL [F180M] | 0.0624 | – | 0.0587 | 0.0574 | 0.065 | – | 0.0624 | – | 0.0599 | 0.0741 | – | 0.057 | 0.0663 | 0.0664 | 0.0551 | – | 0.0475 | – | –
5 | MGESLFKGPRDYNPISSSICHLTNESDGHTTSLYGIGFGPFIITNKHLFRRNNGTLVVQSLHGVFKVKDTTTLQQHLVDGRDMIIIRMPKDFPPFPQKLKFREPQREERICLVTTNFQTKSMSSMVSDTSCTFPSGDGIFWKHWIQTKDGQCGSPLVSTRDGFIVGIHSASNFTNTNNYKTSVPKNFMELLTNQEAQQWVSGWRLNADSVLWGGHKVFMVKPEEPFQPVKEATQL [F180K] | 0.033 | – | – | – | 0.0676 | – | 0.0581 | 0.0478 | 0.059 | 0.051 | – | – | – | 0.045 | – | 0.0501 | – | – | –
6 | MGESLFKGPRDYNPISSSICHLTNESDGHTTSLYGIGFGPFIITNKHLFRRNNGTLVVQSLHGVFKVKDTTTLQQHLVDGRDMIIIRMPKDFPPFPQKLKFREPQREERICLVTTNFQTKSMSSMVSDTSCTFPSGDGIFWKHWIQTKDGQCGSPLVSTRDGFIVGIHSASNFTNTNNCFTSVPKNFMELLTNQEAQQWVSGWRLNADSVLWGGHKVFMVKPEEPFQPVKEATQL [Y179C] | 0.0596 | – | 0.0712 | 0.0445 | 0.064 | – | 0.0526 | 0.0666 | 0.0614 | 0.0669 | – | 0.0463 | 0.0546 | – | – | 0.1 | – | – | 0.0542
7 | MGESLFKGPRDYNPISSSICHLTNESDGHTTSLYGIGFGPFIITNKHLFRRNNGTLVVQSLHGVFKVKDTTTLQQHLVDGRDMIIIRMPKDFPPFPQKLKFREPQREERICLVTTNFQTKSMSSMVSDTSCTFPSGDGIFWKHWIQTKDGQCGSPLVSTRDGFIVGIHSASNFTNTNNYFTSVPKNFMELLTNQEAMQWVSGWRLNADSVLWGGHKVFMVKPEEPFQPVKEATQL [Q197M] | 0.0449 | 0.0493 | – | – | – | – | 0.0666 | – | – | – | – | – | 0.07 | – | – | 0.0631 | – | – | –
8 | MGESLFKGPRDYNPISSSICHLTNESDGHTTSLYGIGFGPFIITNKHLFRRNNGTLVVQSLHGVFKVKDTTTLQQHLVDGRDMIIIRMPKDFPPFPQKLKFREPQREERICLVTTNFQTKSMSSMVSDTSCTFPSGDGIFWKHWIQTKDGQCGSPLVSTRDGFIVGIHSASNFTNTNNYFTSVPKNFMELLTNQEAAQWVSGWRLNADSVLWGGHKVFMVKPEEPFQPVKEATQL [Q197A] | 0.0595 | 0.0566 | 0.0772 | 0.0622 | 0.0495 | – | – | 0.064 | 0.0475 | 0.0722 | 0.0705 | – | 0.0515 | 0.0734 | 0.0506 | – | – | 0.0635 | –
9 | MGESLFKGPRDYNPISSSICHLTNESDGHTTSLYGIGFGPFIITNKHLFRRNNGTLVVQSLHGVFKVKDTTTLQQHLVDGRDMIIIRMPKDFPPFPQKLKFREPQREERICLVTTNFQTKSMSSMVSDTSCTFPSGDGIFWKHWIQTKDGQCGSPLVSTRDGFIVGIHSASNFTNTNGYFTSVPKNFMELLTNQEAQQWVSGWRLNADSVLWGGHKVFMVKPEEPFQPVKEATQL [N178G] | 0.0065 | – | 0.0615 | 0.0641 | 0.0683 | – | – | – | 0.0525 | 0.076 | 0.0616 | – | 0.0561 | – | – | 0.0567 | – | 0.0575 | –
10 | MGESLFKGPRDYNPISSSICHLTNESDGHTTSLYGIGFGPFIITNKHLFRRNNGTLVVQSLHGVFKVKDTTTLQQHLVDGRDMIIIRMPKDFPPFPQKLKFREPQREERICLVTTNFQTKSMSSMVSDTSCTFPSGDGIFWKHWIQTKDGQCGSPLVSTRDGFIVGIHSASNFTNTNNYFTSVPKNFMELLTNQESQQWVSGWRLNADSVLWGGHKVFMVKPEEPFQPVKEATQL [A196S] | 0.0684 | – | – | – | 0.0461 | 0.0412 | 0.0492 | 0.066 | 0.06 | 0.059 | 0.059 | 0.0573 | 0.0488 | 0.0591 | 0.0549 | 0.0607 | 0.053 | – | 0.0638
